The text below walks through data of the supplement of paper PMC4604168 (melanoma cell lines).

The structures appear in SMILES notation. This is one part of the list. Many values rest on one well or one pass, so single values are uncertain.

Some test systems named below: A101D; A2058; A375.
Test in all cases: cell count relative to DMSO control; melanoma cells; higher = more viable cells
Holding throughout (conditions): library dose: standard library concentration; 72 h
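Also: cells treated in 1,536-well plates, then fixed and DAPI-stained, with nuclei counted from automated high-throughput microscope images.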

As for `O=C(Nc1cccc(Cl)c1)Nc1ncc(CCNc2ncnc3ccsc23)s1` + CN(NC(=O)CC(=O)NN(C)C(=S)c1ccccc1)C(=S)c1ccccc1 [STA4783] (first compound 0.004 µM, partner dose 0.03 µM), the cell count with A101D is 48.3%; in the experiment with A2058, 20.4%; in the experiment on A375, 98.6%.
As to `O=c1[nH]nc(Sc2ncc([N+](=O)[O-])s2)n1-c1ccc2c(c1)OCCO2` + CC(=O)O[C@@]12CO[C@@H]1C[C@H](O)[C@@]1(C)C(=O)[C@H](O)C3=C(C)[C@@H](OC(=O)[C@H](O)[C@@H](NC(=O)OC(C)(C)C)c4ccccc4)C[C@@](O)([C@@H](OC(=O)c4ccccc4)[C@H]21)C3(C)C [Docetaxel] (first compound 1 µM, partner dose 0.0005 µM), the figures for the cell count with A101D, with A2058 and with A375 were 39.9%, 10.5% and 65.8%, respectively.
With `O=c1[nH]nc(Sc2ncc([N+](=O)[O-])s2)n1-c1ccc2c(c1)OCCO2` + COc1cc2c(Oc3ccc4[nH]c(C)cc4c3F)ncnc2cc1OCCCN1CCCC1 [cediranib] (first compound 1 µM, partner dose 2 µM), the cell count in the experiment with A101D is 120%; with A2058 it was 104%; in the experiment on A375 it was 103%.
As to `O=c1[nH]nc(Sc2ncc([N+](=O)[O-])s2)n1-c1ccc2c(c1)OCCO2` + NCC(=O)Nc1ccc(-n2nc(C(F)(F)F)cc2-c2ccc3c(ccc4ccccc43)c2)cc1 [OSU03012] (first compound 1 µM, partner dose 5 µM), the cell count in the experiment on A101D was determined as 113%; in the experiment on A2058, 128%; in the experiment with A375, 64.7%.
For the molecule `COc1cc(Nc2ncc(F)c(Nc3ccc4c(n3)NC(=O)C(C)(C)O4)n2)cc(OC)c1OC` [Tamatinib] + C=CCn1c(=O)c2cnc(Nc3ccc(N4CCN(C)CC4)cc3)nc2n1-c1cccc(C(C)(C)O)n1 [MK1775] (first compound 2 µM, partner dose 0.1 µM), the figures for the cell count in the experiment with A101D, in the experiment with A2058 and in the experiment with A375 were 26.8%, 80.4% and 77.7%, respectively.
The like results for `O=C(O)c1ccc(-c2c[nH]c3ncc(-c4ccccc4)cc23)cc1C1CCCC1` + CN(NC(=O)CC(=O)NN(C)C(=S)c1ccccc1)C(=S)c1ccccc1 [STA4783] (first compound 0.8 µM, partner dose 0.03 µM) were, in that order, 40.5%, 12% and 84%.
The corresponding values for `O=c1[nH]nc(Sc2ncc([N+](=O)[O-])s2)n1-c1ccc2c(c1)OCCO2` + CC(C)C[C@H](NC(=O)[C@H](Cc1ccccc1)NC(=O)c1cnccn1)B(O)O [Bortezomib] (first compound 1 µM, partner dose 0.005 µM) are 12.6%, 15.4% and 97.4%.
The corresponding values for `Cn1cncc1[C@@](N)(c1ccc(Cl)cc1)c1ccc2c(c1)c(-c1cccc(Cl)c1)cc(=O)n2C` [tipifarnib] + COc1cc2c(Oc3ccc4[nH]c(C)cc4c3F)ncnc2cc1OCCCN1CCCC1 [cediranib] (first compound 0.05 µM, partner dose 2 µM) are 82.4%, 89.9% and 93%.
For `O=c1[nH]nc(Sc2ncc([N+](=O)[O-])s2)n1-c1ccc2c(c1)OCCO2` + CCCS(=O)(=O)Nc1ccc(F)c(C(=O)c2c[nH]c3ncc(Cl)cc23)c1F [PLX4720] (first compound 1 µM, partner dose 0.4 µM), the values for the cell count with A101D, in the experiment with A2058 and with A375 were 75.4%, 113% and 101%, respectively.
The like results for `O=c1[nH]nc(Sc2ncc([N+](=O)[O-])s2)n1-c1ccc2c(c1)OCCO2` + O=C(/C=C/c1cccnc1)NCCCCC1CCN(C(=O)c2ccccc2)CC1 [FK866] (first compound 1 µM, partner dose 0.05 µM) were, in that order, 72.7%, 114% and 104%.
The corresponding values for `O=C(Nc1cccc(Cl)c1)Nc1ncc(CCNc2ncnc3ccsc23)s1` + COc1cc2c(Oc3ccc4[nH]c(C)cc4c3F)ncnc2cc1OCCCN1CCCC1 [cediranib] (first compound 0.004 µM, partner dose 2 µM) are 95.5%, 92.3% and 141%.
Take `O=c1[nH]nc(Sc2ncc([N+](=O)[O-])s2)n1-c1ccc2c(c1)OCCO2` + C[C@]1(c2nc3c(C(N)=O)cccc3[nH]2)CCCN1 [Veliparib] (first compound 1 µM, partner dose 7 µM): the cell count in the experiment on A101D is 82%; in the experiment on A2058, 78%; in the experiment on A375, 86.5%.
As for `O=C(Nc1cccc(Cl)c1)Nc1ncc(CCNc2ncnc3ccsc23)s1` + Cn1cncc1[C@@](N)(c1ccc(Cl)cc1)c1ccc2c(c1)c(-c1cccc(Cl)c1)cc(=O)n2C [tipifarnib] (first compound 0.004 µM, partner dose 0.05 µM), the cell count in the experiment on A101D was found to be 75.1%; with A2058, 45.7%; in the experiment with A375 it was 80.4%.
The corresponding values for `O=c1[nH]nc(Sc2ncc([N+](=O)[O-])s2)n1-c1ccc2c(c1)OCCO2` + CO[C@H]1C[C@@H]2CC[C@@H](C)[C@@](O)(O2)C(=O)C(=O)N2CCCC[C@H]2C(=O)O[C@H]([C@H](C)C[C@@H]2CC[C@@H](OCCO)[C@H](OC)C2)CC(=O)[C@H](C)/C=C(\C)[C@@H](O)[C@@H](OC)C(=O)[C@H](C)C[C@H](C)/C=C/C=C/C=C/1C [everolimus] (first compound 1 µM, partner dose 0.1 µM) are 66%, 53.5% and 83.1%.
The like results for `O=c1[nH]nc(Sc2ncc([N+](=O)[O-])s2)n1-c1ccc2c(c1)OCCO2` + Cc1nc(Nc2ncc(C(=O)Nc3c(C)cccc3Cl)s2)cc(N2CCN(CCO)CC2)n1 [dasatanib] (first compound 1 µM, partner dose 0.02 µM) were, in that order, 75.2%, 69.9% and 77.3%.
As for `CC1(C)NC(=O)N(c2ccc([N+](=O)[O-])c(C(F)(F)F)c2)C1=O` [nilutamide] + OCCn1cc(-c2cnc3nnn(Cc4ccc5ncccc5c4)c3n2)cn1 [PF04217903] (first compound 5 µM, partner dose 5 µM), the cell count in the experiment with A101D was 95.7%; in the experiment on A2058, 103%; in the experiment with A375, 61%.
The like results for `COc1cc(Nc2ncc(F)c(Nc3ccc4c(n3)NC(=O)C(C)(C)O4)n2)cc(OC)c1OC` [Tamatinib] + CC(C)(C)c1cnc(CSc2cnc(NC(=O)C3CCNCC3)s2)o1 [SNS-032] (first compound 2 µM, partner dose 0.05 µM) were, in that order, 64.1%, 85.7% and 91.3%.
The corresponding values for `O=c1[nH]nc(Sc2ncc([N+](=O)[O-])s2)n1-c1ccc2c(c1)OCCO2` + Cc1cc(N2CCOCC2)cc2[nH]c(-c3c(NC[C@@H](O)c4cccc(Cl)c4)cc[nH]c3=O)nc12 [BMS536924] (first compound 1 µM, partner dose 1 µM) are 91.7%, 90.6% and 93.5%.
The like results for `O=c1[nH]nc(Sc2ncc([N+](=O)[O-])s2)n1-c1ccc2c(c1)OCCO2` + CS(=O)(=O)c1ccc(C(=O)Nc2ccc(Cl)c(-c3ccccn3)c2)c(Cl)c1 [vismodegib] (first compound 1 µM, partner dose 5 µM) were, in that order, 104%, 118% and 114%.
Turning to `C[C@@H]1CCN(C(=O)CC#N)C[C@@H]1N(C)c1ncnc2[nH]ccc12` + NCC(=O)Nc1ccc(-n2nc(C(F)(F)F)cc2-c2ccc3c(ccc4ccccc43)c2)cc1 [OSU03012] (first compound 5 µM, partner dose 5 µM), the cell count is 112% with A101D, 90% in the experiment with A2058 and 52% in the experiment with A375.
For the molecule `O=c1[nH]nc(Sc2ncc([N+](=O)[O-])s2)n1-c1ccc2c(c1)OCCO2` + C[C@@H](Oc1cc(-c2cnn(C3CCNCC3)c2)cnc1N)c1c(Cl)ccc(F)c1Cl [Crizotinib] (first compound 1 µM, partner dose 1 µM), the cell count in the experiment on A101D was 105%; with A2058, 73.5%; in the experiment with A375, 91.5%.
The corresponding values for `Cn1cncc1[C@@](N)(c1ccc(Cl)cc1)c1ccc2c(c1)c(-c1cccc(Cl)c1)cc(=O)n2C` [tipifarnib] + CN(NC(=O)CC(=O)NN(C)C(=S)c1ccccc1)C(=S)c1ccccc1 [STA4783] (first compound 0.05 µM, partner dose 0.03 µM) are 52.8%, 7.95% and 112%.
The like results for `O=c1[nH]nc(Sc2ncc([N+](=O)[O-])s2)n1-c1ccc2c(c1)OCCO2` + Nc1nc(F)nc2c1ncn2[C@@H]1O[C@H](CO)[C@@H](O)[C@@H]1O [fludarabine] (first compound 1 µM, partner dose 1 µM) were, in that order, 74.3%, 111% and 34.4%.
Turning to `O=c1[nH]nc(Sc2ncc([N+](=O)[O-])s2)n1-c1ccc2c(c1)OCCO2` + CS(=O)(=O)CCNCc1ccc(-c2ccc3ncnc(Nc4ccc(OCc5cccc(F)c5)c(Cl)c4)c3c2)o1 [lapatinib] (first compound 1 µM, partner dose 4 µM), the cell count with A101D turned out to be 56%; with A2058, 107%; in the experiment with A375 it was 100%.
Consider `COc1cc(Nc2ncc(F)c(Nc3ccc4c(n3)NC(=O)C(C)(C)O4)n2)cc(OC)c1OC` [Tamatinib] + O=C(O)c1ccc(-c2c[nH]c3ncc(-c4ccccc4)cc23)cc1C1CCCC1 [GSK650394] (first compound 2 µM, partner dose 0.8 µM), for which the cell count in the experiment with A101D was determined as 27.4%; in the experiment with A2058 it was 103%; in the experiment on A375, 87.8%.
Take `Cn1cncc1[C@@](N)(c1ccc(Cl)cc1)c1ccc2c(c1)c(-c1cccc(Cl)c1)cc(=O)n2C` [tipifarnib] + NCC(=O)Nc1ccc(-n2nc(C(F)(F)F)cc2-c2ccc3c(ccc4ccccc43)c2)cc1 [OSU03012] (first compound 0.05 µM, partner dose 5 µM): the cell count in the experiment on A101D was found to be 88%; in the experiment on A2058 it was 81%; in the experiment with A375 it was 55.3%.
On to `O=c1[nH]nc(Sc2ncc([N+](=O)[O-])s2)n1-c1ccc2c(c1)OCCO2` + OCCn1cc(-c2cnc3nnn(Cc4ccc5ncccc5c4)c3n2)cn1 [PF04217903] (first compound 1 µM, partner dose 5 µM), for which the cell count in the experiment with A101D is 93.9%; in the experiment with A2058, 115%; with A375 it was 77.7%.
The corresponding values for `CC1(C)NC(=O)N(c2ccc([N+](=O)[O-])c(C(F)(F)F)c2)C1=O` [nilutamide] + CC(C)(C)c1cnc(CSc2cnc(NC(=O)C3CCNCC3)s2)o1 [SNS-032] (first compound 5 µM, partner dose 0.05 µM) are 89.5%, 67.6% and 82.6%.
